This is an account of results in patent publication US20100016335A1, “NOVEL AMINOPYRIDINE DERIVATIVES HAVING AURORA A SELECTIVE INHIBITORY ACTION” (priority 2006, published 2010).

Not every entry of the source has a single result; some have several. They are shown here; other results are not. There may be further records. Results that share an entry seem to repeat one measurement; one of them may be the mean.

The subject of this test is Human cervical cancer cells (HeLa S3). The experiment in a line: Effect by combined use of drugs in cells (docetaxel), WST-8 method. Type of test: cell-based. The settings on record: docetaxel 0.3 nM alone, HeLa S3, three days; DMSO = 0%. The procedure: Fetal calf serum (FCS) was purchased from Moregate Biotech, DMEM medium from Invitrogen Corp., docetaxel (tradename: Taxere) from Sigma-Aldrich, Inc., and WST-8 from Kishida Chemical Co., Ltd.
Human cervical cancer cells (HeLa S3) were obtained from the American Type Culture Collection (ATCC).
Cells were suspended in a DMEM medium containing 10% FCS, and the cell suspension was dispensed to two 96-well plastic plates at a rate of 750 cells/100 microliters per well. The plates were incubated overnight in 5% CO2-95% air at 37° C. A drug was subjected to graded dilution in dimethylsulfoxide and further diluted with DMSO or with a DMEM medium containing 10% FCS and also containing 0.6 nM docetaxel. […] Cell growth after incubation was measured by the WST-8 method (H. Tominaga, et al., Anal. Commun., 36, 47-50 (1999)). Here, the WST-8 method refers to a method in which 20 microliters of a WST-8 reagent solution is added to each well, incubation is conducted at 37° C. for 60 minutes, the plate is stirred, and the amount of formazan produced is measured by a colorimetric method to determine the inhibitory rate of the drug. The growth inhibitory effects of docetaxel and of the compound according to the invention were determined, with the value obtained in sole treatment of DMSO being defined as 0%.
In general terms: Formazan colour is commonly taken as a measure of viable cells.

On to `CC(=O)O[C@@]12CO[C@@H]1C[C@H](O)[C@@]1(C)C(=O)[C@H](O)C3=C(C)[C@@H](OC(=O)[C@H](O)[C@@H](NC(=O)OC(C)(C)C)c4ccccc4)C[C@@](O)([C@@H](OC(=O)c4ccccc4)[C@H]21)C3(C)C` [docetaxel, reference compound], for which the “Cell growth inhibitory effect by sole administration of docetaxel (0.3 nM) (%)” value was 52.1, 53.4, 49.6, 48.9% [lines of one column].
